{"source": "PubChem BioAssay AID1745853", "about": "(National Center for Advancing Translational Sciences (NCATS), 2022)", "experiment_in_all_cases": "Primary Screen for Target Class Profiling of Small Molecule Inhibitors of Methyltransferases", "key": {"[1]": {"molecular_target": "Glycine N-methyltransferase (Homo sapiens) (UniProt Q14749)", "settings": "purified enzyme, MTase-Glo SAH luminescence; measured here: GNMT inhibition; at 40 µM; stronger effect = lower value", "summary_of_the_method": "(§1)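 Each enzyme was assayed with SAM and its substrate. SAH formation detected by MTase-Glo luminescence; single-point 40 uM screen[…].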"}, "[2]": {"molecular_target": "Guanidinoacetate N-methyltransferase (Homo sapiens) (UniProt Q14353)", "settings": "purified enzyme, MTase-Glo SAH luminescence; measured here: GAMT inhibition; at 40 µM; stronger effect = lower value", "summary_of_the_method": "as §1"}, "[3]": {"molecular_target": "Histamine N-methyltransferase (Homo sapiens) (UniProt P50135)", "settings": "purified enzyme, MTase-Glo SAH luminescence; measured here: HNMT inhibition; at 40 µM; stronger effect = lower value", "summary_of_the_method": "as §1"}, "[4]": {"molecular_target": "Nicotinamide N-methyltransferase (Homo sapiens) (UniProt P40261)", "settings": "purified enzyme, MTase-Glo SAH luminescence; measured here: NNMT inhibition; at 40 µM; stronger effect = lower value", "summary_of_the_method": "as §1"}, "[5]": {"molecular_target": "Phenylethanolamine N-methyltransferase (Homo sapiens) (UniProt P11086)", "settings": "purified enzyme, MTase-Glo SAH luminescence; measured here: PNMT inhibition; at 40 µM; stronger effect = lower value", "summary_of_the_method": "as §1"}}, "note": "“And” between values parts separate entries of the source, which are not always exact repeats. Equal values may be shown once. The list shows a part of the results. The main result of the screen is listed elsewhere. These columns were measured beside it and carry no call. % is scaled to controls: 0 for no effect and ±100 for the full control effect."}
{"smiles": "CCCN1C(=O)c2c(C(=O)NCc3cc(Br)ccc3OC)ncn2CC1(C)C(=O)NC1CCCC1", "note": "(configuration not stated)", "values": [{"measurement": "activity change, negative = inhibition", "setting": "[1]", "value": -0.601, "unit": "%"}, {"measurement": "activity change, negative = inhibition", "setting": "[2]", "value": 0, "unit": "%"}, {"measurement": "activity change, negative = inhibition", "setting": "[3]", "value": 3.96, "unit": "%"}, {"measurement": "activity change, negative = inhibition", "setting": "[4]", "value": -5.24, "unit": "%"}, {"measurement": "activity change, negative = inhibition", "setting": "[5]", "value": 7.04, "unit": "%"}]}
{"smiles": "C=C1CC[C@@H]2[C@](C)(CO)[C@H](O)CC[C@@]2(C)[C@@H]1C/C=C1/C(=O)OC[C@@H]1O", "values": [{"measurement": "activity change, negative = inhibition", "setting": "[1]", "value": 0.987, "unit": "%"}, {"measurement": "activity change, negative = inhibition", "setting": "[3]", "value": 10.2, "unit": "%"}]}
{"smiles": "CCC(C)NC(=O)c1ccc2c(=O)n(C)c3nn(Cc4ccc(F)cc4Cl)c(=O)n3c2c1", "note": "(configuration not stated)", "values": [{"measurement": "activity change, negative = inhibition", "setting": "[1]", "value": 0.279, "unit": "%"}, {"measurement": "activity change, negative = inhibition", "setting": "[2]", "value": 0.227, "unit": "%"}, {"measurement": "activity change, negative = inhibition", "setting": "[3]", "value": 0.424, "unit": "%"}, {"measurement": "activity change, negative = inhibition", "setting": "[4]", "value": -2.94, "unit": "%"}, {"measurement": "activity change, negative = inhibition", "setting": "[5]", "value": 1.14, "unit": "%"}]}
{"smiles": "CC1(C(=O)NC2CCCCC2)Cn2c(cc3sccc32)C(=O)N1Cc1ccccc1Cl", "note": "(configuration not stated)", "values": [{"measurement": "activity change, negative = inhibition", "setting": "[1]", "value": -2.62, "unit": "%"}, {"measurement": "activity change, negative = inhibition", "setting": "[2]", "value": 0.845, "unit": "%"}, {"measurement": "activity change, negative = inhibition", "setting": "[3]", "value": 3.88, "unit": "%"}, {"measurement": "activity change, negative = inhibition", "setting": "[4]", "value": 4.31, "unit": "%"}, {"measurement": "activity change, negative = inhibition", "setting": "[5]", "value": -2.1, "unit": "%"}]}
{"smiles": "O=C(CC1CCCCC1)N1CCCC1c1nncn1Cc1ccncc1", "note": "(configuration not stated)", "values": [{"measurement": "activity change, negative = inhibition", "setting": "[1]", "value": 1.66, "unit": "%"}, {"measurement": "activity change, negative = inhibition", "setting": "[2]", "value": -7.18, "unit": "%"}, {"measurement": "activity change, negative = inhibition", "setting": "[3]", "value": 2.47, "unit": "%"}, {"measurement": "activity change, negative = inhibition", "setting": "[4]", "value": -4.31, "unit": "%"}, {"measurement": "activity change, negative = inhibition", "setting": "[5]", "value": 1.11, "unit": "%"}]}
{"smiles": "CN(Cc1ccccc1C(F)(F)F)S(C)(=O)=O", "values": [{"measurement": "activity change, negative = inhibition", "setting": "[1]", "value": -5.29, "unit": "%"}, {"measurement": "activity change, negative = inhibition", "setting": "[2]", "value": -6.93, "unit": "%"}, {"measurement": "activity change, negative = inhibition", "setting": "[3]", "value": -2.46, "unit": "%"}, {"measurement": "activity change, negative = inhibition", "setting": "[4]", "value": -16.6, "unit": "%"}, {"measurement": "activity change, negative = inhibition", "setting": "[5]", "value": -10.9, "unit": "%"}]}
{"smiles": "O=C(NCc1cccnc1)c1ccc2c(=O)nc3c(-c4ccccc4)n[nH]n3c2c1", "values": [{"measurement": "activity change, negative = inhibition", "setting": "[1]", "value": -10.5, "unit": "%"}, {"measurement": "activity change, negative = inhibition", "setting": "[2]", "value": 0.976, "unit": "%"}, {"measurement": "activity change, negative = inhibition", "setting": "[3]", "value": -1.64, "unit": "%"}, {"measurement": "activity change, negative = inhibition", "setting": "[4]", "value": -1.75, "unit": "%"}, {"measurement": "activity change, negative = inhibition", "setting": "[5]", "value": -4.09, "unit": "%"}]}
{"smiles": "Cc1ccc(S(=O)(=O)N[C@@H](Cc2ccccc2)C(=O)CCl)cc1", "values": [{"measurement": "activity change, negative = inhibition", "setting": "[1]", "value": -22.3, "unit": "%"}, {"measurement": "activity change, negative = inhibition", "setting": "[2]", "value": 13.6, "unit": "%"}, {"measurement": "activity change, negative = inhibition", "setting": "[3]", "value": 2.23, "unit": "%"}, {"measurement": "activity change, negative = inhibition", "setting": "[4]", "value": -4.96, "unit": "%"}, {"measurement": "activity change, negative = inhibition", "setting": "[5]", "value": 9.54, "unit": "%"}]}
{"smiles": "CC(C)(OCc1nn(Cc2ccccc2)c2ccccc12)C(=O)O", "values": [{"measurement": "activity change, negative = inhibition", "setting": "[1]", "value": 5.06, "unit": "%"}, {"measurement": "activity change, negative = inhibition", "setting": "[2]", "value": -1.9, "unit": "%"}, {"measurement": "activity change, negative = inhibition", "setting": "[3]", "value": 6.63, "unit": "%"}, {"measurement": "activity change, negative = inhibition", "setting": "[4]", "value": -16, "unit": "%"}, {"measurement": "activity change, negative = inhibition", "setting": "[5]", "value": -1.1, "unit": "%"}]}
{"smiles": "COCCN1C(=O)C(CC(=O)O)=C2CCCCC21", "note": "(configuration not stated)", "values": [{"measurement": "activity change, negative = inhibition", "setting": "[1]", "value": -2.72, "unit": "%"}, {"measurement": "activity change, negative = inhibition", "setting": "[2]", "value": -2.28, "unit": "%"}, {"measurement": "activity change, negative = inhibition", "setting": "[3]", "value": -1.74, "unit": "%"}, {"measurement": "activity change, negative = inhibition", "setting": "[4]", "value": -8.12, "unit": "%"}, {"measurement": "activity change, negative = inhibition", "setting": "[5]", "value": 2.06, "unit": "%"}]}
{"smiles": "CC(C)Cn1c(=O)c2ccc(C(=O)NC(C)C)cc2n2c(=O)n(CC(=O)N(C)c3ccc(F)cc3)nc12", "values": [{"measurement": "activity change, negative = inhibition", "setting": "[1]", "value": -3.5, "unit": "%"}, {"measurement": "activity change, negative = inhibition", "setting": "[2]", "value": 0.035, "unit": "%"}, {"measurement": "activity change, negative = inhibition", "setting": "[3]", "value": 1.91, "unit": "%"}, {"measurement": "activity change, negative = inhibition", "setting": "[4]", "value": -8.81, "unit": "%"}, {"measurement": "activity change, negative = inhibition", "setting": "[5]", "value": -2.99, "unit": "%"}]}
{"smiles": "CC(=O)N1CCC(C2CCN(C(C)=O)C2)CC1", "note": "(configuration not stated)", "values": [{"measurement": "activity change, negative = inhibition", "setting": "[1]", "value": -1.17, "unit": "%"}, {"measurement": "activity change, negative = inhibition", "setting": "[2]", "value": 1.79, "unit": "%"}, {"measurement": "activity change, negative = inhibition", "setting": "[3]", "value": 0.158, "unit": "%"}, {"measurement": "activity change, negative = inhibition", "setting": "[4]", "value": -2.97, "unit": "%"}, {"measurement": "activity change, negative = inhibition", "setting": "[5]", "value": -3.45, "unit": "%"}]}
{"smiles": "O=C(O)c1ccc(O)c2ncc(N3CCCN(CCc4cccc5ccccc45)CC3)cc12", "values": [{"measurement": "activity change, negative = inhibition", "setting": "[1]", "value": "-19.4% and -2.76%"}, {"measurement": "activity change, negative = inhibition", "setting": "[2]", "value": 1.63, "unit": "%"}, {"measurement": "activity change, negative = inhibition", "setting": "[3]", "value": "-3.71% and -4.58%"}, {"measurement": "activity change, negative = inhibition", "setting": "[4]", "value": "-8.77% and -24.3%"}, {"measurement": "activity change, negative = inhibition", "setting": "[5]", "value": "-83.3% and -71.8%"}]}
{"smiles": "CC1(C(=O)NCc2ccccc2)Cn2nc(-c3ccccc3)cc2C(=O)N1C1CC1", "note": "(configuration not stated)", "values": [{"measurement": "activity change, negative = inhibition", "setting": "[1]", "value": -0.961, "unit": "%"}, {"measurement": "activity change, negative = inhibition", "setting": "[2]", "value": -0.986, "unit": "%"}, {"measurement": "activity change, negative = inhibition", "setting": "[3]", "value": -5.79, "unit": "%"}, {"measurement": "activity change, negative = inhibition", "setting": "[4]", "value": -7, "unit": "%"}, {"measurement": "activity change, negative = inhibition", "setting": "[5]", "value": -4.29, "unit": "%"}]}
{"smiles": "CC1(CO)CC(O)C2(C)CCC3(C)C(=CCC4C5(C=O)CCC(OC6OC(C(=O)O)C(O)C(O)C6OC6OC(C(=O)O)C(O)C(O)C6O)C(C)(C)C5CCC43C)C2C1", "note": "(configuration not stated)", "values": [{"measurement": "activity change, negative = inhibition", "setting": "[1]", "value": 3.42, "unit": "%"}, {"measurement": "activity change, negative = inhibition", "setting": "[2]", "value": 1.52, "unit": "%"}, {"measurement": "activity change, negative = inhibition", "setting": "[3]", "value": 8.79, "unit": "%"}, {"measurement": "activity change, negative = inhibition", "setting": "[4]", "value": -8.35, "unit": "%"}, {"measurement": "activity change, negative = inhibition", "setting": "[5]", "value": 2.87, "unit": "%"}]}
